Data: the supplement of paper PMC4604168 (melanoma cell lines)
The list shows a part of the results. Most values come without repeats; read them as rough.

What was measured:
Assay in all cases: cell count relative to DMSO control; melanoma cells; higher = more viable cells
Conditions in all cases: library dose: low library concentration; 72 h
MZ2-MEL = test system: MZ2-MEL
MeWo = test system: MeWo
RPMI7951 = test system: RPMI7951
RVH-421 = test system: RVH-421
SkMel28 = test system: SkMel28
SkMel30 = test system: SkMel30
SkMel5 = test system: SkMel5
UACC257 = test system: UACC257
UACC62 = test system: UACC62
WM115 = test system: WM115
WM1716 = test system: WM1716
WM1745 = test system: WM1745
WM3526 = test system: WM3526
WM3619 = test system: WM3619
WM451Lu = test system: WM451Lu
SkMel2 = test system: SkMel2
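Note: cell number obtained by counting DAPI-stained nuclei in high-throughput microscope images with image analysis software, screen run in 1,536-well plates.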

Structure (SMILES) | cell count (MZ2-MEL) [%] | cell count (MeWo) [%] | cell count (RPMI7951) [%] | cell count (RVH-421) [%] | cell count (SkMel28) [%] | cell count (SkMel30) [%] | cell count (SkMel5) [%] | cell count (UACC257) [%] | cell count (UACC62) [%] | cell count (WM115) [%] | cell count (WM1716) [%] | cell count (WM1745) [%] | cell count (WM3526) [%] | cell count (WM3619) [%] | cell count (WM451Lu) [%] | cell count (SkMel2) [%]
COc1cc2c(Oc3ccc4[nH]c(C)cc4c3F)ncnc2cc1OCCCN1CCCC1 [cediranib] + Oc1nc(-c2ccc(C(F)(F)F)cc2)nc2c1CSCC2 [XAV939] (first compound 0.4 µM, partner dose 2 µM) | 97.2 | 97.2 | 90.5 | 90.4 | 104 | 111 | 75.6 | 76.2 | 93.4 | 112 | 74 | 80.3 | 105 | 110 | 114 | 
CN(NC(=O)CC(=O)NN(C)C(=S)c1ccccc1)C(=S)c1ccccc1 + COC(=O)c1sccc1S(=O)(=O)Nc1ccc(Nc2ccccc2)cc1OC [GSK0660] (first compound 0.006 µM, partner dose 1 µM) | 96.4 | 87.5 | 104 | 87.8 | 102 | 85.6 | 84.4 | 77.2 | 104 | 81.6 | 81.4 | 44.4 | 103 | 36.4 | 108 | 
CC(C)(C)c1cnc(CSc2cnc(NC(=O)C3CCNCC3)s2)o1 + O=C(Nc1ccccc1)c1cc([N+](=O)[O-])ccc1Cl [GW9662] (first compound 0.01 µM, partner dose 2 µM) | 94.5 | 104 | 89.6 | 86.3 | 110 | 130 | 104 | 85.8 | 93.2 | 94.9 | 96 | 103 | 124 | 108 | 82.6 | 
CN(NC(=O)CC(=O)NN(C)C(=S)c1ccccc1)C(=S)c1ccccc1 + COc1ccc(COc2ccc(Cc3cnc(N)nc3N)cc2OC)cc1 [GW2580] (first compound 0.006 µM, partner dose 1 µM) | 102 | 81.7 | 105 | 81.4 | 100 | 108 | 88.1 | 94.2 | 76.9 | 93 | 60.1 | 53.4 | 99.7 | 34.9 | 108 | 
CN(NC(=O)CC(=O)NN(C)C(=S)c1ccccc1)C(=S)c1ccccc1 + CCCCCCCCCCCC1=C(O)C(=O)C=C(O)C1=O [Embelin] (first compound 0.006 µM, partner dose 1.2 µM) | 98.6 | 108 | 99.5 | 93.2 | 106 | 106 | 101 | 82 | 98.3 | 92.9 | 84.2 | 50 | 93 | 84.1 | 104 | 
COc1cc2c(Oc3ccc4[nH]c(C)cc4c3F)ncnc2cc1OCCCN1CCCC1 [cediranib] + COc1cc(N2CCC(N3CCN(C)CC3)CC2)ccc1Nc1ncc(Cl)c(Nc2ccccc2S(=O)(=O)C(C)C)n1 [NVP-TAE684] (first compound 0.4 µM, partner dose 0.08 µM) | 93.7 | 87.2 | 99 | 109 | 89.9 | 105 | 90.6 | 68.4 | 80 | 99.7 | 99.8 | 71 | 89.4 | 91.8 | 103 | 
COc1cc2c(Oc3ccc4[nH]c(C)cc4c3F)ncnc2cc1OCCCN1CCCC1 [cediranib] + O=C1NC(=O)/C(=C/c2ccc(-c3ccc(F)cc3O)o2)S1 [AS252424] (first compound 0.4 µM, partner dose 1 µM) | 94.9 | 98.7 | 91.9 | 107 | 91.7 | 104 | 91.6 | 85.1 | 99.6 | 108 | 97 | 92.4 | 125 | 122 | 123 | 
CC(C)(C)c1cnc(CSc2cnc(NC(=O)C3CCNCC3)s2)o1 + c1cc(-c2cnn3cc(-c4ccc(OCCN5CCCCC5)cc4)cnc23)ccn1 [Dorsomorphin] (first compound 0.01 µM, partner dose 0.4 µM) | 97.4 | 104 | 97.7 | 74.7 | 96.3 | 79.5 | 83.6 | 72.8 | 78.6 | 88.1 | 98.1 | 74 | 99.4 | 114 | 113 | 
COc1cc2c(Oc3ccc4[nH]c(C)cc4c3F)ncnc2cc1OCCCN1CCCC1 [cediranib] + CC(C)CCN1c2nc(Nc3cc(F)c(O)c(F)c3)ncc2N(C)C(=O)C1C [BID1870] (first compound 0.4 µM, partner dose 0.2 µM) | 95.1 | 86.6 | 111 | 85.2 | 80.1 | 99.4 | 103 | 82.6 | 82.8 | 103 | 88.5 | 83.6 | 107 | 125 | 120 | 
COc1cc2c(Oc3ccc4[nH]c(C)cc4c3F)ncnc2cc1OCCCN1CCCC1 [cediranib] + O=S(=O)(c1ccccc1)N(CC(F)(F)F)c1ccc(C(O)(C(F)(F)F)C(F)(F)F)cc1 [T0901317] (first compound 0.4 µM, partner dose 1.4 µM) | 99.1 | 102 | 116 | 91.4 | 88.8 | 96.3 | 82.7 | 75.9 | 94.4 | 86 | 86.6 | 84.1 | 85.2 | 91.7 | 97.9 | 
CCc1ccc(CCOc2ccc(CC3SC(=O)NC3=O)cc2)nc1 (stereo not given) [pioglitazone] + COc1cc2ncnc(Nc3ccc(Oc4ccccc4)cc3)c2cc1OC [SrcI1] (first compound 2 µM, partner dose 2 µM) | 90.9 | 95.5 | 104 | 133 | 112 | 114 | 124 | 87.4 | 96.2 | 101 | 120 | 87.3 | 106 | 102 | 130 | 
CC(C)(C)c1cnc(CSc2cnc(NC(=O)C3CCNCC3)s2)o1 + O=C(O)C(=O)Nc1sc2c(c1C(=O)O)CCNC2 [TCS401] (first compound 0.01 µM, partner dose 1.66667 µM) | 101 | 98.3 | 90.3 | 113 | 76.3 | 113 | 100 | 59.7 | 91.4 | 96.2 | 87.8 | 83.9 | 116 | 107 | 84.2 | 
CCCCCCCCc1ccc(CCC(N)(CO)CO)cc1 [fingolimod] + COc1ccc(COc2ccc(Cc3cnc(N)nc3N)cc2OC)cc1 [GW2580] (first compound 2 µM, partner dose 1 µM) |  | 100 | 94 | 93.8 | 96.1 | 103 | 101 | 102 | 88.3 | 98.4 | 79 | 87.5 | 86.8 | 98.2 | 107 | 100
CN(NC(=O)CC(=O)NN(C)C(=S)c1ccccc1)C(=S)c1ccccc1 + c1cc(-c2cnn3cc(-c4ccc(OCCN5CCCCC5)cc4)cnc23)ccn1 [Dorsomorphin] (first compound 0.006 µM, partner dose 0.4 µM) |  | 96.7 | 86.6 | 73.8 | 80 | 98.8 | 88.5 | 70.7 | 87.7 | 74.3 | 70.9 | 51.4 | 93 | 53.4 | 112 | 
CN(NC(=O)CC(=O)NN(C)C(=S)c1ccccc1)C(=S)c1ccccc1 + O=C1NC(=O)/C(=C/c2ccc(-c3ccc(F)cc3O)o2)S1 [AS252424] (first compound 0.006 µM, partner dose 1 µM) | 100 | 67.6 | 118 | 107 | 101 | 82.2 | 86.5 | 84.3 | 88.8 | 81.6 | 95.4 | 89.5 | 95.4 | 105 | 112 | 
CCCCCCCCc1ccc(CCC(N)(CO)CO)cc1 [fingolimod] + Cn1c(Nc2ccc(C(F)(F)F)cc2)nc2cc(Oc3ccnc(-c4ncc(C(F)(F)F)[nH]4)c3)ccc21 [CHIR265] (first compound 2 µM, partner dose 0.08 µM) | 72.8 | 64.3 | 43.1 | 55.4 | 56.3 | 52.8 |  |  | 39 | 55.5 | 63.6 | 70.5 | 45.1 | 55.6 | 104 | 
CCCCCCCCc1ccc(CCC(N)(CO)CO)cc1 [fingolimod] + CNC(=O)c1cc(Oc2ccc(NC(=O)Nc3ccc(Cl)c(C(F)(F)F)c3)cc2)ccn1 [sorafenib] (first compound 2 µM, partner dose 0.4 µM) | 75.3 | 85.7 | 67.3 | 115 | 91.4 | 84 |  |  | 79.5 | 86.9 | 72.7 | 77.7 | 79.7 | 109 | 104 | 
CCCCCCCCc1ccc(CCC(N)(CO)CO)cc1 [fingolimod] + CO[C@H]1C[C@@H]2CC[C@@H](C)[C@@](O)(O2)C(=O)C(=O)N2CCCC[C@H]2C(=O)O[C@H]([C@H](C)C[C@@H]2CC[C@@H](OCCO)[C@H](OC)C2)CC(=O)[C@H](C)/C=C(\C)[C@@H](O)[C@@H](OC)C(=O)[C@H](C)C[C@H](C)/C=C/C=C/C=C/1C [everolimus] (first compound 2 µM, partner dose 0.02 µM) | 83.7 | 75.2 | 64.5 | 88.6 | 48.6 | 70.7 |  |  | 62 | 74.8 | 60.6 | 75.7 | 60 | 65.9 | 88.2 | 
NC(=O)c1ccc(N(C(N)=O)c2c(F)cccc2F)nc1-c1ccc(F)cc1F + CS(=O)(=O)c1ccc(C(=O)Nc2ccc(Cl)c(-c3ccccn3)c2)c(Cl)c1 [vismodegib] (first compound 0.4 µM, partner dose 1 µM) |  | 140 | 126 | 95.9 | 102 | 127 |  |  | 93.3 | 100 | 150 | 115 | 118 | 96.7 | 113 | 106
NC(=O)c1ccc(N(C(N)=O)c2c(F)cccc2F)nc1-c1ccc(F)cc1F + CC(C)CCN1c2nc(Nc3cc(F)c(O)c(F)c3)ncc2N(C)C(=O)C1C [BID1870] (first compound 0.4 µM, partner dose 0.2 µM) |  | 86.6 | 89.8 | 89.9 | 83.5 | 103 | 103 | 95.9 | 94.8 | 101 | 116 | 103 | 97.9 | 65.5 | 96 | 
